In PubChem BioAssay AID1645887 (National Center for Advancing Translational Sciences (NCATS), 2021):
“And” between values parts separate entries of the source, which are not always exact repeats. Identical values can stand only once. Out of some 16,000 compounds screened, about 40 (0.2%) were called active. Another 1% or so got no clear call; they are omitted. Calls follow the shape of the dose curve; as a rule, active = well fitted activation curve with a large enough effect; inconclusive = small, poorly fitted or top-dose-only effect, or another doubt; inactive = no such curve, though single readings can be large or run the other way. The list shows a part of the results.

molecular target: Rap guanine nucleotide exchange factor 4 (Homo sapiens) (UniProt Q8WZA2); test: Validation qHTS for agonist of cAMP-regulated guanine nucleotide exchange factor 4 (EPAC2); conditions: EPAC2 Rap1B BODIPY-GDP exchange, fluorescence; activation: active compounds read high;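 also: exchange makes BODIPY-GDP fluorescence drop when released from Rap1B; series mostly up to about 150 µM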
Sequence of UniProt Q8WZA2 (Q8WZA2 whole entry, looked up): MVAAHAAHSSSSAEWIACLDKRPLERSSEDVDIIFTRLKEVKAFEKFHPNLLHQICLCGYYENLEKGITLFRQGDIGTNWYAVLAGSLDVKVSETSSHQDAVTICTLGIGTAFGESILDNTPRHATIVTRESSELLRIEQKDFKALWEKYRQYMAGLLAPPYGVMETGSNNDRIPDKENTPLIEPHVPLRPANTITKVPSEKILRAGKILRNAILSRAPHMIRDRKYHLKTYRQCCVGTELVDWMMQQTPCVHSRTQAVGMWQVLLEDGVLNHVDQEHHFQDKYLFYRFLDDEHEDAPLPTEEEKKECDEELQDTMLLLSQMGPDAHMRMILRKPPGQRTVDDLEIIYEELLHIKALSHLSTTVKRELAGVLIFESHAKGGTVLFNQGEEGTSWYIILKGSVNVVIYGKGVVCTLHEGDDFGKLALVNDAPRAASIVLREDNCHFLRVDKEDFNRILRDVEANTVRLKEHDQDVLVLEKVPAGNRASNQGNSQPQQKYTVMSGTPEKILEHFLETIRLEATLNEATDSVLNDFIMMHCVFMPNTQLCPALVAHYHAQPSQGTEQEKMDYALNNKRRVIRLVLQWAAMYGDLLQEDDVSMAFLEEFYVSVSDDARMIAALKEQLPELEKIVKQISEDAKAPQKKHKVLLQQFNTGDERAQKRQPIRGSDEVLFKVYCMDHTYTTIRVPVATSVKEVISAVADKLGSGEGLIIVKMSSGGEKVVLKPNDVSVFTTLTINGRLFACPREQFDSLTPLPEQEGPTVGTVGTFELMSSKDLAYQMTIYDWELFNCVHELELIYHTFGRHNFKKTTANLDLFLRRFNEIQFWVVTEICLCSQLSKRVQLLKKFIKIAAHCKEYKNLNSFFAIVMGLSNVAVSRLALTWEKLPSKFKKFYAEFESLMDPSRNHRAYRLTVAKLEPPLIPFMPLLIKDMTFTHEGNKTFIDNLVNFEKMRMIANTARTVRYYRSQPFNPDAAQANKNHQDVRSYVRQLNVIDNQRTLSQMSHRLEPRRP
Procedure, shortened: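 Signal normalized against 6.5 mM cAMP as agonist control. Mix of EPAC2 (100 nM), RAP1B-BODIPY-GDP (250 nM) and GDP (50 uM) was read kinetically at 480/540 nm, every 5 min over 30 min, after 5 min room-temperature incubation with compound.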
% is scaled to controls: 0 for no effect and ±100 for the full control effect.

activation, inactive:
Cc1oc(-c2cccc(NC(=O)c3ccccn3)c2)nc1CNC(=O)c1ccc(C(F)(F)F)cc1 -17.1%
COCC(=O)Nc1cc(C(=O)NC2CCc3ccccc32)c2c(c1)nc(-c1ccncc1)n2C (stereo not drawn) -24.2%
C=C1CC[C@H](O)CC1=C/C=C1\CCC[C@]2(C)[C@@H]([C@H](C)/C=C/[C@H](C)C(C)C)CC[C@@H]12 -70.8%
Cc1cccc(CNc2ccnc(-c3ccccc3Cl)n2)c1 -10.4%
CN[C@H]1CCc2cc(OC)c(OC)c(OC)c2-c2ccc(N[C@@H]3CCCCNC3=O)c(=O)cc21 -5.73%
NCCC(O)(P(=O)(O)O)P(=O)(O)O -9.23%
COc1ccc(Oc2ncc3nc(C)c(=O)n(-c4ccc(OC)cc4)c3n2)cc1 -20.4%
CC1CCC2(OC1)OC1CC3C4CCC5CC(O)CCC5(C)C4=CCC3(C)C1C2C (stereo not drawn) 5.96%
CC(C)C[C@@H](CC#N)N1CCN(Cc2ccccc2)CCC1=O -11.1%
CC[C@@H](C)[C@H](N)C(=O)O -29.2%
COCc1ccc(CN2Cc3ccccc3OC(c3ccccc3OC)C2)o1 (stereo not drawn) 2.14%
Cc1cc2c(c(-c3cnccn3)c1)OC(CNC(=O)c1cc(C(C)C)[nH]n1)C2 (stereo not drawn) -26.9%
CC(=O)Oc1cc(OC(C)=O)c2c(=O)cc(-c3ccc(OC(C)=O)c(OC(C)=O)c3)oc2c1 -0.746%
C=C1CC[C@H](O)C/C1=C\C=C1/CCC[C@]2(C)[C@@H]([C@H](C)CCCC(C)C)CC[C@@H]12 -70.5%
COc1cccc(-c2cncnc2NCCc2cnc[nH]2)c1 1.28%
COc1cc2nc(N3CCN(C(=O)[C@H]4CCCO4)CC3)nc(N)c2cc1OC -12.7%
Cc1cc(C(C#N)c2ccc(Cl)cc2)c(Cl)cc1NC(=O)c1cc(I)cc(I)c1O (stereo not drawn) 5.57%
CN1CCN(c2ncc3nc(-c4ccc(Cl)cc4)c(=O)n(CCC#N)c3n2)CC1 -10.1%
c1ccc(Nc2cc(-c3ccoc3)ncn2)cc1 -14.3%
CNC(=O)[C@@H]1C[C@H](Sc2nc3ccccc3[nH]2)CN1Cc1cccc(C(F)(F)F)c1 -5.81%
CC(C[N+](C)(C)C)OC(N)=O (stereo not drawn) -16.6% and -0.85% and -26.6%
CCCCCCc1ccc(N2C[C@H](CCCCC)[C@@H](CC(=O)NCc3ccccc3)C2=O)cc1 -4.7%
Cc1cc(C(=O)NCc2nc(-c3cccc(NC(=O)c4ccccc4)c3)oc2C)nc(C)n1 -20.5%
